Measurements reported in the RNAGym collection of RNA variant scans (doi:10.1093/nar/gkz1192).
The source gives no read counts; variants with many changes may rest on few reads.

B1: CPEB3 Ribozyme (parent)
chain: UAACAGGGGGCCACAGCAGAAGCGUUCACGUCGCAGCCCCUGUCAGAUUCUGGUGAAUCUGCGAAUUCUGCUGUAUAUCUC

Variants of: B1
Experiment: self-cleavage, relative activity (ratio to wild type); higher = more cleavage; in vitro, sequencing
Procedure, shortened: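 Libraries of CPEB3 self-cleaving ribozyme mutants came from rounds of error-prone PCR and carried barcodes, which DNA sequencing matched to variants. In vitro transcription used T7 RNA polymerase at 37°C for 5 hours, with a further 15 min in DNase I before EDTA stopped the reaction; the ribozymes cleaved during both steps. The RNA was reverse transcribed with template switching and sequenced on Illumina. Relative activity is the cleaved/total read fraction of a variant divided by that of the unmutated ribozyme, averaged over three batches with at least 5 reads.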

Row | Variant | self-cleavage
1 | G33U C39U A57G | 0.18
2 | G33U C59A U76G | 0.05
3 | G33U G42A U49A A57G | 0.08
4 | G33U G46U A56G A64U | 0.24
5 | G33U U41A U49A U54C A56G U78C | 0.12
6 | G33U U43C A56G U60C U74A | 0.15
7 | G33U U67G U74C | 0.13
8 | G33U U67G U78A U80A | 0.13
9 | G33U U72C A75G | 0.15
10 | G33U U72C U78C | 0.25
11 | C34A A35U C40U U48C U54C | 0.07
12 | C34A A56U U72A | 0.08
13 | C34A G61A U69C | 0.08
14 | C34A U43C A64G | 0.13
15 | C34A U60A A64U U76C | 0.15
16 | C34G A35G A45G U66C U67C | 0.09
17 | C34G A35G U48C | 0.11
18 | C34G A57G U58C | 0.18
19 | C34G U41C U51C U72C U78C | 0.08
20 | C34G U41C U80C | 0.65
21 | C34G U72C U78C | 0.25

Row | Variant | self-cleavage
22 | C34U A35G C68U U78C | 0.27
23 | C34U A35G U51C U78C | 0.1
24 | C34U A35G U67C U72A | 0.09
25 | C34U A45U U58C U67C | 0.1
26 | C34U A57U A64G | 0.17
27 | C34U A75U U80C | 0.43
28 | C34U C38U U49C U69C | 0.17
29 | C34U U48C G52U A57G | 0.4
30 | C34U U48C U66C U69A U78A | 0.13
31 | C34U U51A U67A | 0.16
32 | C34U U54A U60C U69C U78A C81G | 0.17
33 | C34U U58C A64G | 0.1
34 | C34U U60C U67C | 0.07
35 | A35C A45C U51C U66C | 0.12
36 | A35C A45C U66C | 0.19
37 | A35C A45G A57G C59G U67C U80C | 0.11
38 | A35C A47G U60C | 0.28
39 | A35C A56G U67C U69C | 0.19
40 | A35C A57U A64G A65U | 0.13
41 | A35C A65G A77U | 0.26
42 | A35C C37U U41A G61A | 0.13

Row | Variant | self-cleavage
43 | A35C G63A U69C | 0.28
44 | A35C U41A U54A | 0.24
45 | A35C U43A U51C A65U U66C | 0.33
46 | A35C U48A C50U | 0.32
47 | A35C U51C U60C | 0.24
48 | A35C U54A U72C A75U | 1.2
49 | A35C U54C A64G | 0.45
50 | A35G A45G A47G U66A | 0.87
51 | A35G A45G A57G U72C | 1.22
52 | A35G A45G U49A C79A | 1.3
53 | A35G A45U A47U U54C U80A | 0.84
54 | A35G A45U A77G | 1.25
55 | A35G A45U C68U U69A A75U | 0.54
56 | A35G A45U U48A U72A U78C | 0.22
57 | A35G A45U U54C | 1.24
58 | A35G A47G A77G | 1.28
59 | A35G A47G C81A | 1.51
60 | A35G A47G G53A U60C C71A A77G | 0.71
61 | A35G A47G U80C | 1.23
62 | A35G A47U U67A G73A | 0.79
63 | A35G A56G A64U U80A | 1.18

Row | Variant | self-cleavage
64 | A35G A56G U58C C62G A65U | 0.26
65 | A35G A56U U60A | 0.89
66 | A35G A56U U66A | 1.08
67 | A35G A64U U66C U72A | 0.39
68 | A35G A77U U78C | 1.23
69 | A35G C39A A57G | 0.55
70 | A35G C39U U51A U60C U66A | 0.23
71 | A35G C40G A45G U60C U74C A75G | 0.53
72 | A35G C40U U49C U51A U66A U72C | 0.39
73 | A35G C40U U54C A57G | 1.15
74 | A35G C44U A75U U80C | 1.16
75 | A35G C44U U69C U72A | 0.13
76 | A35G C50A A65C | 0.18
77 | A35G C50U A57G A75G | 1.32
78 | A35G C71A U80C | 1.13
79 | A35G G36A A47G A64C | 0.08
80 | A35G G36A U58C G61A C68A U69C | 0.18
81 | A35G G42A U72C | 0.7
82 | A35G G42U U43C | 0.22
83 | A35G G52U A57G A64G | 1.31
84 | A35G G53C U80A | 1.28
